The other results are listed elsewhere or left out.
Tested on: PF3D7_0420300 AP2 domain 1 (GST-tagged)
Assay: gcPBM binding intensity (ln(normalized median fluorescence intensity)); higher = stronger DNA binding
In short: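 Alexa488 anti-GST antibody, scanned at 488 nm, detected GST-tagged P. falciparum DNA-binding domains that had been expressed in E. coli and incubated for 1 h on an Agilent 4 × 180k array. The array carried primer-extended double-stranded 36-bp intergenic genomic probes and negative controls. Binding intensity is the highest Masliner-normalised natural-log median intensity across replicate spots of either orientation of each probe.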

Row | Sequence | gcPBM binding intensity (ln)
1 | TTTTAGCACTTATTATAAGATATCAAAAAGATGGGT [XGTACX_negctrl_site325] | 9.05
2 | ACTATCATTTTTTTAACACACAAAAAAAATAAAATA [CACACA_site3519] | 9.25
3 | AAAATTTCAATAAATACACACATATATATATATATT [CACACA_site1685] | 9.36
4 | AAATAATATATGAATGCACACAGTAAAAATTAAAGA [CACACA_site2252] | 9.7
5 | ATATTTTTATGATGTATCCAAGAAATGGAACTATAT [CACACA_negctrl_site1268] | 9.02
6 | AAGATTAATATTTTATGTACATATGTAATATATATG [XGTACX_site4367] | 9.17
7 | AAGAATACACCACGCACACACACTTGAGAAAAAATA [CACACA_site3828] | 9.9
8 | TTCTTTGTGGTATAGATACACACTATATTAATATGA [CACACA_site2150] | 9.4
9 | ATATATACCTAAGACACACACATATAGATTTATATA [CACACA_site6498] | 9.84
10 | ATTTTAGATATCCTGCGTACACAAATTGCTTTATTT [XGTACX_site7149] | 9.43
11 | TATATAGTAATATATACACACACTTGTCTTGTAAAA [CACACA_site990] | 9.56
12 | TTTTTATTTAATATTTTAAAAAAAAATCATTTTTAA [XGTACX_negctrl_site207] | 8.41
13 | TTATAAAAATAATATCGTACAAATGATAAAGATTAA [XGTACX_site4893] | 9.13
14 | TGAATTCGTCAAAAGCGTACATATAATATCTTCTTG [XGTACX_site8842] | 9.19
15 | ACATATATATATATATATAATATTTTATATTTATTA [CACACA_negctrl_site713] | 8.96
16 | AAAATAATGTTTATATGTACATATATATATATATAT [XGTACX_site8815] | 9.34
17 | CCATTTACCCTTGCCATGCACACTTTTTTATAGAAA [CACACA_site3505] | 9.55
18 | ATATTTTTTTATAAATGTACAAAAATAATATTGCAT [XGTACX_site7399] | 9.02
19 | TTTCCAAATTGTTGACGGACACTCACGAATAGTTAT [XGTACX_site5720] | 9.09
20 | ACATGAAGATATTTTTGTCCGTACAAATTCATATGA [XGTACX_site1837] | 9.1
21 | CATATGTATATGACTACACACAAGGGTGTACATATA [CACACA_site1164] | 9.46
22 | AGTATATCAAAATACATACACACATTTGTATATACA [CACACA_site2697] | 9.5

Row | Sequence | gcPBM binding intensity (ln)
23 | TACGTTATGTTGAATAGTACAATTTGGTGAACAGGT [XGTACX_site1729] | 9.35
24 | GTCCTCATCCACTATGCACACAAAAAAGAAATACAC [CACACA_site9131] | 9.53
25 | TTTTTTTTTTTTTTTTGTACACAAATTTATTGTCTA [XGTACX_site2680] | 8.68
26 | CGAAGGTTTGGCCATGCATGTTATAAGAATATATGT [TGCATGCA_site441] | 9.25
27 | TCATTTTATTATTCTACACACTTATCTATAATTACA [CACACA_site6168] | 9.51
28 | TTACATGTACAAAAGTTGCACTTCATACACTTTTAT | 9.26
29 | ATTCTATATATGTGCACACAAAAGATATATATATAT [CACACA_site2124] | 9.53
30 | TCATTTCAATACACAAGTACGTATATGGTTATATTG [XGTACX_site6021] | 9.33
31 | AATATAAAATAATGCACACATAAACAAAAAATCAAA [CACACA_site1371] | 9.83
32 | TTTAATAATATAATGTGTACTTAAAAATTTATATAT [XGTACX_site5821] | 9.07
33 | TCATAAATTAATAATACATGCATAATATTAAAATGT [TGCATGCA_site5] | 9.26
34 | AAAAATATATAAGAGAGTACATAAAATAAATTAATT [XGTACX_site1534] | 9.31
35 | ATATATATAATATGTAGTACTTTCCTCTCAAATCAT [XGTACX_site7766] | 9.21
36 | ATCAAAAATATAAAAAATATAAACAATTTATTATCA [CACACA_negctrl_site768] | 9.13
37 | TTTACATCCAAAAACTGTACACTTATTTTATAATTC [XGTACX_site5332] | 9.2
38 | GAATCATATTTAAACACACATACATATATATATATA [CACACA_site3352] | 9.39
39 | AATAAGTAACAAAATACACACATATATATAATTATA [CACACA_site1837] | 9.85
40 | TTCATTATTATTAACATACACACGTGTTATATACAC [CACACA_site4112] | 9.47
41 | AAAAAATACAAGAAATGTACTCAAGCATATATTAAT [XGTACX_site3325] | 9.53
42 | TTTTTACTATAATTAAAATTAACAAAAGAAAATGAT [GTGCAC_negctrl_site52] | 9.11
43 | TTCATTTTTTAAGCATCACACACGAAAGAACAAAGT [CACACA_site1122] | 9.62
44 | TAACCATACATACATACACACACACCCACATATATA [CACACA_site8951] | 10.1

Row | Sequence | gcPBM binding intensity (ln)
45 | ATAAAAAACTCAGAGCGTACATAATTTTTTCTATTT [XGTACX_site2803] | 9.18
46 | TATATATTCAAATGTGCATGTAAAAAAAAAAAAAAG [TGCATGCA_site126] | 9.32
47 | CAGGAGAGTAAAAGAGTGCGAATTATTATTTTGGAG | 9.11
48 | AGACATTAATGAAGGTGTACATATATTTGACAGAAT [XGTACX_site655] | 9.45
49 | TCCCTAGTATACCTTAGTACATATATTATTTTGCAC [XGTACX_site2174] | 9.35
50 | GGCATATATATATGCACACATACATAAATACATGTG [CACACA_site5999] | 9.42
51 | TATATAATATAATTGACATGCAACCATTTTCGTGAA [TGCATGCA_site458] | 9.2
52 | TCATTCATATGTTACACACACACACGCACATAAAAA [CACACA_site7514] | 10.3
53 | AAGTTGGAAAGGTTATGTACTTATTTTTTAAAATAA [XGTACX_site204] | 8.98
54 | TTTTTTTTTCCCGTAAATATTGAGACAACCATAATG [CACACA_negctrl_site41] | 8.98
55 | TATTTTTATTTAGGACGTACAAAAATAAATCATATT [XGTACX_site1448] | 8.99
56 | TATAAATATTACGGTAGTACTATACATATATATAAT [XGTACX_site7442] | 9.31
57 | TTAGAAACATTGAAAGCATGCAATATTACTTTATAC [TGCATGCA_site522] | 9.2
58 | TCCTTATATTTGCACACACACACAAGAAAATGAAAA [CACACA_site6613] | 10.1
59 | CATATAAAAAGACACACACACACATATATATATATA [CACACA_site940] | 10
60 | TCTTTCTTATATTTATATAATTATATTTATTTTATA [GTGCAC_negctrl_site300] | 9.33
61 | TTTAATTTGTTATACACACACAAAAAAAGTTATAAA [CACACA_site7779] | 9.45
62 | GGAATACAGGAAAAAAGTACAGAAAATGGAATATTA [XGTACX_site5053] | 9.31
63 | ATATAATGTTATAGAAGTACATGAAATACTTATTTA [XGTACX_site8850] | 9.18
64 | AACATTTATAAATATTGTACATATAGATTTATATAT [XGTACX_site2662] | 9.17
65 | AACAATATATTGAATAGTACATATATATAAACATAT [XGTACX_site2811] | 9.46
66 | AAAATAAAATAACGTTGTACAACATCATTTCTATAT [XGTACX_site5080] | 9.19

Row | Sequence | gcPBM binding intensity (ln)
67 | GATTTACAACACGAACGTACAGAACAAAAAGGAAAA [XGTACX_site6501] | 9.4
68 | GTATCTCATTATTCGTGTACTAAACACATAAAAATA [XGTACX_site2262] | 9.16
69 | ATCTATATCTATAATACACACTAAAGTAACAGAATA [CACACA_site7370] | 9.51
70 | TGTTTAAAGGAAAAGGAGTAGTCTATTATATTATCT [CACACA_negctrl_site858] | 9.1
71 | TATAAAAATAAAAAAAGTACACATAAAAATATATAT [XGTACX_site5189] | 9.62
72 | AATGTAAAAGTAAACACACACATATATATATACATA [CACACA_site2484] | 9.89
73 | TATTGTATTTAATAAACACACAATATTAAAAATATA [CACACA_site4725] | 9.17
74 | CATATATACACATACACACACACACGGACACGCACA [CACACA_site6910] | 10.2
75 | ATACACATATATGTGTGTACTCACCTTTTAATATGA [XGTACX_site4349] | 9.41
76 | ATAAAAATTGATTATACACACGCGCACCCACAACAA [CACACA_site3536] | 9.78
77 | ATGTCAAATTTTTGTGCACACATATATAGTTATTAT [CACACA_site2242] | 9.69
78 | TATATATATCAGCAATGTACACAATGCATATTATAT [XGTACX_site4836] | 9.15
79 | TAAGGATAAATAAAATGAAATGAAATAAATAAATGA [XGTACX_negctrl_site539] | 9.24
80 | TTATTTTATTTTAAAAAAAACAATATAAATTCAAAG [GTGCAC_negctrl_site57] | 8.67
81 | ATTATACAAAATGGTAAGGAAAAGGAAATTTTTTTT [CACACA_negctrl_site1090] | 9.17
82 | CAATATTATATATATACACACATAATCTGTAAAAAC [CACACA_site1068] | 9.64
83 | CATATATATATATATACACACATATATATTTTCTTT [CACACA_site1457] | 9.46
84 | AAAAAAAAAAATATCACACACACATAAATATAAACA [CACACA_site7138] | 10.1
85 | AAAGTAGGCTTATATGCACACTTTGAAATATTATAA [CACACA_site5117] | 9.1
86 | TATAAAAATATATTTACACACTATATATATCGAAAG [CACACA_site1700] | 9.32
87 | ATGGTTTAGTTATATACACACTCGAAAATAACGACA [CACACA_site7520] | 9.37
88 | ATATATTTTCAAAAAAGTAAATCAAAATAAATATAT [TGCATGCA_negctrl_site319] | 9.09

Source: the supplement of paper PMC11417369
